Assay results taken from article PMC5675595.
Results are given in words; binding and its absence hold for the method and conditions named. In cells and extracts the contact can be indirect. Some binding calls cover weakened binding; strength is not graded here.

By UniProt entry, the sequences of proteins in these tests, tags left out.
UniProt Q6PDM2: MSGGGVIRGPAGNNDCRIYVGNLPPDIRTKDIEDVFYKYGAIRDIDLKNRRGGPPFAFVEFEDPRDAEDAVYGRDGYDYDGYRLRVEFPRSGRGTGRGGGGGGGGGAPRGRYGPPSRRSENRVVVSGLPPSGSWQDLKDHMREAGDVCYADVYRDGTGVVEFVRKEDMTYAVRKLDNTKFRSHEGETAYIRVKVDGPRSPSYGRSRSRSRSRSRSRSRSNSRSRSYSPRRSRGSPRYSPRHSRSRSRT

Molecular target: SRSF1 (endogenous, mouse macrophages) (mouse (endogenous in BMDMs)) (UniProt Q6PDM2)
Assay: co-IP; nuclear extracts of mouse macrophages (WT BMDMs; control siRNA macrophages) treated with LPS for the indicated times; IP with anti-IRAK2, anti-SRSF1 or anti-ALYREF; western blot

B1: IRAK2 (endogenous, wild-type macrophages) (protein, UniProt Q8CFA1 1-622)
chain: MACYIYQLPSWVLDDLCRNIDTLSEWDWMQFASYVITDLTQLRKIKSMERVQGVSITRELLWWWSMRQATVQQLVDLLCHLELYRAAQIVLSWKPVPESTSPLPAFPEAVKPGAVATSRRNLKDEQEKVRPVKPRSLLDTGPIMAGAQRQRPCEMDAPCSLKTDAPDSPQSKYCSTSTSAPKQERLLGLPGDRLFWSEADVVQATEDFDQSHRISEGTFADIYQGQRNGVAFAFKKLREVAGSSPGSMDRFLQAEMQLCLRCCHANVLPLLGFCTGRQFHSLIYPYMANGSLHDRLWAQGNSDMLPWPQRASICSGLLLAVEHLHSLDIIHSNVKSANVLLDQHLNPKLAHPVAHPHPDNKKTKYTVMRTHLFQASAAYLPEHFIRVGQLTKQVDIFSCGIVLAEVLTGIPAMDKDRSPVYLKDLLLSEIPNSTSSVCSRKTSMGKAVVKEICQRHVEKRAGLLPEACEEAWATAVSVCLRRRNASVEEARVSLAGVEEQLRGQLSLPWSRVSEATGSSSNTPEETDDVDNSSLSVPSLVMMASCPGAASSPLFTGHGAAQPSTSGRQEADSSSEACTGPQTPQNATETSWKIEINEAKRRLMENIVLYKEERLDSSELFGP
binding: binds
